# In PubChem BioAssay AID1768 (National Center for Advancing Translational Sciences (NCATS), 2009):
# Hit rate of the full screen: of about 270,000 compounds, about 620 (0.23%) were called active. The inconclusive results got no clear call from the source; some entries with a clear call stand among them for comparison. Calls follow the shape of the dose curve; as a rule, active = well fitted inhibition curve with a large enough effect in the polarisation, with a control signal flat (not every such curve was filed as active); inconclusive = small, poorly fitted or top-dose-only effect, or effect the other way, or a change in a side signal; inactive = no such curve, though single readings can be large or run the other way; the % refers to the polarisation. Potencies of inconclusive entries are doubtful fits and often do not repeat. A note “side channel” means that the fit belongs to a control or component signal, not to the main read-out.
# Target: Menin (Homo sapiens) (UniProt O00255)
# UniProt O00255, sequence (O00255 whole entry, looked up): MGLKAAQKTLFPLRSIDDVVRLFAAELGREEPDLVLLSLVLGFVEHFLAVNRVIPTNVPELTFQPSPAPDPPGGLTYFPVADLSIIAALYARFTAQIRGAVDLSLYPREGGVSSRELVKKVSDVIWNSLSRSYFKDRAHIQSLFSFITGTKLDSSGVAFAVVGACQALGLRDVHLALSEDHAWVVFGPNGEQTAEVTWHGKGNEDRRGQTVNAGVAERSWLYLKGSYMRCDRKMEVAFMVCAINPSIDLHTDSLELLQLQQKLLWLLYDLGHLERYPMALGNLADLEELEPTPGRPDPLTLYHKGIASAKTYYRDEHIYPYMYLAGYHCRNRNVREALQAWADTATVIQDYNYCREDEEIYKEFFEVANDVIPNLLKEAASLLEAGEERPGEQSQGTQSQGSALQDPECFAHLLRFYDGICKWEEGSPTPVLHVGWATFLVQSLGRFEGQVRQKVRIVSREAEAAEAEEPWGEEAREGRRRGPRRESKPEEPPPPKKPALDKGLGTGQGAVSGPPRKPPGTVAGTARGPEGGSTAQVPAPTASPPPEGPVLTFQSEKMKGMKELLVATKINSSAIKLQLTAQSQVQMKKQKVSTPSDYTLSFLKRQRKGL
# Assay: qHTS Assay for Inhibitors Targeting the Menin-MLL Interaction in MLL Related Leukemias: Competition With Texas Red Labeled MLL-derived Mutant Peptide; as to FP activity change, negative = inhibition: % of control where 0% means no effect
# Settings: fluorescence polarization; FP activity change, negative = inhibition: at 61.6 µM (top of the series)
# Potency is read from the fitted curve at half-maximal effect; tags tell the direction and shape of the fitted curve or compound fluorescence and quenching.
Compound,Potency,"FP activity change, negative = inhibition"
COc1ccc(/C(O)=C2\C(=O)C(=O)N(CCN(C)C)C2c2cccc(OC)c2OC)cc1 (stereo not given),"inconclusive: 17.8 µM [fluorescent, side channel, single point]",
CCOc1ccc(/C=C2/SC(=S)N(CCC(=O)Nc3ccc(C(=O)O)cc3)C2=O)cc1,"inconclusive: 39.8 µM [fluorescent, side channel, single point]",
COc1ccc(CCn2c(=S)[nH]c3ccc(N4CCOCC4)cc3c2=O)cc1OC,"inconclusive: 14.1 µM [quencher, side channel, partial curve]",
Cc1cc(C=O)c(C)n1-c1ccc(NC2CCCC2)c([N+](=O)[O-])c1,"inconclusive: 12.6 µM [quencher, side channel, partial curve]",
CCOc1ccc(/C=N/NC(=O)c2cc3c(OC)cc(OC)c(OC)c3[nH]2)cc1,"inconclusive: 25.1 µM [quencher, side channel, partial curve]",
Cc1c(Cl)cccc1N1C(=O)CC(NNC(=O)c2cccs2)C1=O (stereo not given),"inconclusive: 31.6 µM [quencher, side channel, single point]",
Fc1ccccc1N=C1NN=C(c2ccccc2)CS1,"inconclusive: 25.1 µM [inhibitor, partial curve]",
CCOC(=O)C1CCN(C(=O)C(C)N(c2ccc(Oc3ccccc3)cc2)S(C)(=O)=O)CC1 (stereo not given),"inconclusive: 12.6 µM [fluorescent, side channel, partial curve]",
Nc1ccc(C(=O)OCC(=O)c2cccc([N+](=O)[O-])c2)cc1,"inconclusive: 25.1 µM [quencher, side channel, partial curve]",
O=C(NCc1ccc2c(c1)OCO2)Nc1ccc2nsnc2c1,"inconclusive: 15.8 µM [quencher, side channel, partial curve]",
CN(c1nc2ccccc2n2c(-c3ccco3)nnc12)S(=O)(=O)c1ccccc1,"inconclusive: 7.08 µM [fluorescent, side channel, full curve]",
O=S(=O)(/C=C/c1ccccc1)N1CCc2ccccc2C1,"inconclusive: 31.6 µM [inhibitor, single point]",
C=CCCC(=O)Nc1nc(C)c(-c2csc(Nc3ccccc3OC)n2)s1,"inconclusive: 11.2 µM [quencher, side channel, partial curve]",
CCSc1nnc2ccc(-c3ccc(OC)c(OC)c3)nn12,"inconclusive: 1.41 µM [inhibitor, full curve]",
COc1ccc(S(=O)(=O)Nc2ccc(C)cc2)cc1N(C)S(=O)(=O)c1ccc(Cl)cc1,"inconclusive: 2.82 µM [inhibitor, partial curve]",
O=C(O)c1ccc(NC(=O)c2cn(-c3ccccc3)nc2-c2ccc(Cl)cc2)cc1,"inconclusive: 10 µM [quencher, side channel, partial curve]",
COc1ccc(C(=O)N2CCN(C(=O)Cc3ccccc3)CC2)cc1,"inconclusive: 35.5 µM [inhibitor, single point]",
CCc1ccccc1NC(=O)c1ccc(CN2CCC(Cc3ccccc3)CC2)cc1,"inconclusive: 14.1 µM [inhibitor, single point]",

Compound,Potency,"FP activity change, negative = inhibition"
COC(=O)c1ccccc1CSc1nsc(/C=C/N(C)C)c1C#N,"inconclusive: 17.8 µM [quencher, side channel, partial curve]",
COc1ccc(C(=O)Nc2nc3ccccc3[nH]2)cc1OC,,inactive: -20.8%
CC[C@H]1C(c2cccc(Cl)c2)=NN(c2ccccc2)[C@@H]1CO,"inconclusive: 56.2 µM [quencher, side channel, partial curve]",
COc1ccc(-c2c3c(=O)n(C)c(=O)n(C)c3cn2-c2cccc(OC)c2)cc1,"inconclusive: 3.98 µM [inhibitor, single point]",
COc1ccc2[nH]cc(CCNS(=O)(=O)c3ccc(F)cc3)c2c1,"inconclusive: 25.1 µM [quencher, side channel, partial curve]",
CC1CCCCC1NC(=O)C1CCC(CNS(=O)(=O)c2ccccc2)CC1 (stereo not given),"inconclusive: 35.5 µM [fluorescent, side channel, single point]",
CC1=C(C)CC(C(=O)Nc2nc(C)cs2)C(C(=O)O)C1 (stereo not given),,inactive: -3.74%
N#C/C(=C(/O)COC(=O)CSc1ccc(Cl)cc1)c1nc2ccccc2[nH]1,"inconclusive: 39.8 µM [quencher, side channel, single point]",
Cc1ccc(OCCn2cc(/C=C/C(=O)O)c3ccccc32)cc1,"inconclusive: 14.1 µM [quencher, side channel, partial curve]",
Cc1cc(C)c(NC(=O)Cn2nnc(C(=O)NCc3ccc4c(c3)OCO4)c2N)c(C)c1,"inconclusive: 14.1 µM [fluorescent, side channel, partial curve]",
O=C1c2ccccc2C(=O)N1OCc1ccc(Cl)cc1,"inconclusive: 3.55 µM [inhibitor, full curve, poor fit]",
CCOC(=O)CSc1nc(Nc2ccc3c(c2)OCO3)c2ccccc2n1,"inconclusive: 35.5 µM [quencher, side channel, single point]",
c1ccc(CCC2CCCCN2Cc2nc(C3CC3)no2)cc1 (stereo not given),"inconclusive: 20 µM [fluorescent, side channel, partial curve]",
O=S(=O)(Nc1cccnc1)c1ccc(F)cc1,"inconclusive: 44.7 µM [inhibitor, partial curve, poor fit]",
O=C(CSc1nnc(CNc2ccc(Cl)cc2)o1)Nc1nc2c(s1)CCCC2,"inconclusive: 35.5 µM [quencher, side channel, single point]",
CC1=CN2C(=N)/C(=C/c3ccc(Sc4ccc(Cl)cc4)o3)C(=O)N=C2S1,"inconclusive: 35.5 µM [quencher, side channel, partial curve]",
O=C(Nc1cccc([N+](=O)[O-])c1)c1cc(S(=O)(=O)Nc2ccccn2)ccc1Cl,"inconclusive: 31.6 µM [quencher, side channel, single point]",
